Reference: PubChem BioAssay AID1508642 (National Center for Advancing Translational Sciences (NCATS), 2021)
Out of some 43,000 compounds screened, about 200 (0.47%) were called active. Roughly 12% stayed inconclusive and do not appear here. Calls follow the shape of the dose curve; as a rule, active = well fitted cell-killing curve with a large enough effect; inconclusive = small, poorly fitted or top-dose-only effect, or effect the other way; inactive = flat fitted curve, though single readings scatter. This is one part of the list.

Assay: Cell viability qHTS assay in S16 Pmp22-F2sN cells; also: nearly all actives have a fitted effect of over 65% in size
Details: S16 Pmp22-F2sN Schwann cells viability, CellTiter-Glo, 24 h; series mostly up to 57.5 µM; activity change, negative = cytotoxicity: at the top concentration
Method in brief: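 Viability was measured by CellTiter-Glo luminescence (15 min, room temperature). This followed 24 h at 37 °C of compound exposure (23 nL pin transfer) in S16 Pmp22-F2sN Schwann cells, 500-1,000 per well.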
% is scaled to controls: 0 for no effect and ±100 for the full control effect.

Row | SMILES | activity change, negative = cytotoxicity
1 | COc1ccc(NCc2cc3ccc(OC)cc3n(CC(=O)Nc3cccc(OC)c3)c2=O)cc1 | inactive: -0.0788%
2 | Cc1ccc(CNC(=O)c2cn(C)c3ccc(S(=O)(=O)N4CCOCC4)cc3c2=O)cc1 | inactive: 4.77%
3 | CCOc1ccc(-c2nc(CNC(=O)Nc3ccccc3)c(C)o2)cc1 | inactive: 0.806%
4 | COc1ccccc1N1CCN(C(=O)c2cc3c(=O)oc4ccc(C)cc4c3s2)CC1 | inactive: -3.35%
5 | Cc1ccccc1NC(=O)CSc1nc2ccccc2c2nc(CCn3c(C)nc4ccccc43)nn12 | inactive: 3.56%
6 | COC(=O)c1c(NC(=O)COc2c(C)ccc(C)c2C)sc2c1CCC(C)C2 (stereo unspecified) | inactive: -2.13%
7 | CC1=C(C(=O)Nc2cccnc2)C(c2ccc(Cl)cc2)n2nc(SCc3ccccc3)nc2N1 (stereo unspecified) | inactive: 0.465%
8 | CCCN1CCN(c2ncnc3sc(C(=O)Nc4cccc(Cl)c4C)c(C)c23)CC1 | inactive: 1.46%
9 | CCN(CC)c1cc2c(cc1F)c(=O)c(S(=O)(=O)c1ccc(C)cc1)cn2Cc1ccc(F)cc1 | inactive: 0.236%
10 | CCOc1ccc(NC(=O)[C@H](Cc2ccccc2)N2Cc3ccccc3C2=O)cc1 | inactive: 0.709%
11 | O=C(Cn1ncc2ccsc2c1=O)N1CCN(c2ccccc2)CC1 | inactive: 1.1%
12 | CCCSc1nc2c(c(=O)[nH]1)C(c1ccc(F)cc1F)CC(=O)N2 (stereo unspecified) | inactive: -8.86%
13 | CC(=O)N1CCC(N(Cc2ccco2)C(=O)Nc2ccc(Br)cc2F)CC1 | inactive: -6.87%
14 | O=C(CC1N=C2c3ccccc3N=C(SCc3ccccc3Cl)N2C1=O)NCc1cccs1 (stereo unspecified) | inactive: 3.41%
15 | COc1ccc(C(=O)NNc2ncnc3c2cnn3-c2ccccc2)cc1 | inactive: -2.67%
16 | CCOC(=O)C1CCCN(Cc2cn3c(-c4ccc(Br)cc4)nnc3s2)C1 (stereo unspecified) | inactive: 1.85%
17 | CCOc1ccc(NC(=O)Cc2ccc(-n3c(C)nc4cccnc43)cc2)cc1 | inactive: 0.707%
18 | CN(C(=O)c1ccc2c(c1)N(Cc1ccccc1F)C(=O)c1ccccc1S2(=O)=O)C1CCCCC1 | inactive: 14.1%
19 | O=C(Nc1cc(Cl)ccc1Cl)c1cc(S(=O)(=O)N2CCCc3ccccc32)ccc1F | inactive: -9.98%
20 | COC(=O)c1ccccc1NC(=O)CCc1c(C)nc2c(c(C)nn2-c2ccccc2)c1C | inactive: -2.79%
21 | COc1ccc(Cn2ccc3nc(C)c(C(=O)NCc4ccc(OC)cc4OC)cc3c2=O)cc1 | inactive: 2.98%
22 | COc1cccc(CNC(=O)CCCn2nc(C)n3c(cc4sccc43)c2=O)c1 | inactive: 3.61%
23 | COc1ccc(C2CC(=O)c3c([nH]c(C(=O)OC4CCCCCC4)c3C)C2)cc1OC (stereo unspecified) | inactive: 25.1%
24 | COc1ccc(-n2nnc(-c3nc(-c4ccccc4C)no3)c2N)cc1Cl | inactive: -0.333%

Row | SMILES | activity change, negative = cytotoxicity
25 | O=C(Cn1ncc2c([nH]c3ccccc32)c1=O)NCc1cccc(Cl)c1 | inactive: -1.17%
26 | CCOC(=O)c1cnc2c(C)cc(Cl)cc2c1NCCc1ccc(OC)c(OC)c1 | inactive: 8.23%
27 | CCOC(=O)c1cc(-c2ccc(F)cc2)n(CCC(=O)NCc2ccccc2OC)c1C | inactive: -20.6%
28 | COc1ccc(NC(=O)C(C)n2c(C)c3cnn(-c4ccccc4)c(=O)c3c2C)cc1Cl (stereo unspecified) | inactive: 3.93%
29 | Cc1cccc(OCC(=O)N(Cc2ccc(C(C)C)cc2)Cc2ccco2)c1C | inactive: -22%
30 | O=C(Nc1nnc(S(=O)(=O)N2CCCC2)s1)c1ccccc1F | inactive: 2.9%
31 | Cc1ccc(N2CC(NC(=O)c3ccco3)CC2=O)cc1C (stereo unspecified) | inactive: 11.6%
32 | O=C(NCCc1ccccc1)c1ccc(CSc2nc3ccncc3n2Cc2ccccc2F)cc1 | inactive: -19.1%
33 | CC(C)COc1ccc(-c2nonc2NC(=O)c2ccc(F)cc2)cc1 | inactive: -0.791%
34 | O=C(NCC1CCCO1)c1c[nH]c2ccc(S(=O)(=O)Nc3ccc(F)cc3F)cc2c1=O (stereo unspecified) | inactive: 0.985%
35 | CC(C)(C)c1ccc(-c2nc(S(=O)(=O)c3ccccc3)c(N3CCOCC3)o2)cc1 | inactive: 2.79%
36 | COc1ccc(C(=O)Nc2nnc(S(=O)(=O)N3CCC(C)CC3)s2)cc1OC | inactive: 3.37%
37 | O=C(c1cccc(F)c1)N1CCC(c2c[nH]c3ccccc23)(c2c[nH]c3ccccc23)CC1 | inactive: 4.99%
38 | CCN(C(=O)C1CCCN(c2ncnc3onc(-c4ccc(F)cc4)c23)C1)c1ccccc1 (stereo unspecified) | inactive: -2.92%
39 | CCOc1ccc(C(CC(=O)Nc2cc(C)c(Cl)cc2OC)N2Cc3ccccc3C2=O)cc1OC (stereo unspecified) | inactive: -8.14%
40 | CC1CCCCN1Cc1c(O)ccc2c(=O)c(-c3ccccc3)coc12 (stereo unspecified) | inactive: 3.4%
41 | Cc1ccc(CNC(=O)c2sc3nc(-c4ccc(F)cc4)ccc3c2N)cc1 | inactive: 0.341%
42 | CCOC(=O)C1=C(CN2CCCCC2)NC(=O)NC1c1ccc(C)cc1 (stereo unspecified) | inactive: 10.3%
43 | COc1cccc(CNC(=O)CN2C(=O)COc3ccc(S(=O)(=O)N4CCCCCC4)cc32)c1 | inactive: 3.45%
44 | Cc1ccc(CNC(=O)c2cc3c(s2)-c2ccc(Cl)cc2SC3)cc1 | inactive: 7.8%
45 | CN(C)c1ccc(NC(=O)CN2CCN(CC(=O)Nc3ccc(Br)cc3)CC2)cc1 | inactive: -5.54%
46 | Cc1ccc(CSC2=Nc3ccccc3C3=NC(CC(=O)NCc4cccs4)C(=O)N23)cc1 (stereo unspecified) | inactive: -6.8%
47 | CCc1cccc(NC(=O)Cn2c(=O)n(CCC(=O)NCC3CCCO3)c(=O)c3cc(OC)c(OC)cc32)c1 (stereo unspecified) | inactive: 2.65%
48 | Cc1ccc(-c2nc3ncccc3o2)cc1NC(=O)c1ccccc1Br | inactive: 24.2%

Row | SMILES | activity change, negative = cytotoxicity
49 | CCc1ccc(C2CC(=O)NC(NC(=O)c3ccc(C(C)(C)C)cc3)=N2)cc1 (stereo unspecified) | inactive: -4.53%
50 | Cc1c(-c2ccccc2)c(=O)oc2c(CN3CCCC3)c(O)ccc12 | inactive: -4.64%
51 | CCOc1ccc(/C=C/c2nc(C#N)c(Nc3ccc(OCC)cc3)o2)cc1 | inactive: 4.7%
52 | CC1CC(=O)N(CC(=O)Nc2ccc(F)cc2F)c2ccccc2S1 (stereo unspecified) | inactive: 8.19%
53 | COc1ccc(NC(=O)Nc2cccc(-c3cn4cccnc4n3)c2)cc1 | inactive: 14.9%
54 | O=C(NCCc1ccc(Cl)cc1)c1ccc2c(c1)N(Cc1ccccc1F)C(=O)c1ccccc1S2(=O)=O | inactive: 1.09%
55 | Cc1nc2ccn(Cc3ccccc3)c(=O)c2cc1C(=O)NCc1ccccc1F | inactive: 10.9%
56 | Cc1noc(C)c1S(=O)(=O)N1CCCC(C(=O)Nc2ccc(C(C)C)cc2)C1 (stereo unspecified) | inactive: 0.0312%
57 | CCc1ccccc1NC(=O)Nc1cc(C(=O)NCc2ccc(OC)cc2)ccc1N1CCCC1 | inactive: -0.237%
58 | O=C(c1ccccc1)n1nc(-c2ccco2)nc1NCc1ccccc1Cl | inactive: -11.4%
59 | COc1ccc(N(C(=O)COc2ccccc2OC)S(=O)(=O)c2ccc(Cl)cc2)cc1 | inactive: -27.5%
60 | CCOc1ccc(CNC(=O)C2CCN(c3nn4c(=O)cc(C)nc4s3)CC2)cc1 | inactive: 11.4%
61 | CCOCCCNC(=O)c1cc2c(=O)[nH]c3ccccc3c2n1C | inactive: 9.35%
62 | CCOc1ccc(CCNC(=O)C2CCC(CNS(=O)(=O)c3ccc(Cl)cc3)CC2)cc1OCC (stereo unspecified) | inactive: 11.2%
63 | COc1cccc(-n2cc(C(=O)Nc3cc(C)c(Cl)cc3OC)c3ccccc3c2=O)c1 | inactive: -8.93%
64 | N#Cc1c(Nc2cccc(F)c2)sc(C(=O)c2ccc(Cl)cc2)c1N | inactive: -9.81%
65 | Cc1ccc(C)c(CN2C(=O)CSc3ccc(C(=O)NCCc4ccc(Cl)cc4)cc32)c1 | inactive: 27.4%
66 | CCCNC(=O)Cn1nc(-c2ccc(C)c(C)c2)c2cnc3ccc(F)cc3c21 | inactive: 3%
67 | Clc1ccc(CNc2cc(-c3ccccc3)nc3nncn23)cc1 | inactive: -23.4%
68 | O=C(Nc1cccc(C(F)(F)F)c1)Nc1nnc(N2CCCCC2)s1 | inactive: -14%
69 | COc1ccc(-c2nc3sc(CCNS(=O)(=O)c4ccc(F)c(C)c4)c(C)n3n2)cc1 | inactive: -25.9%
70 | COc1ccccc1CNC(=O)CN1C(=O)CCn2nc(-c3ccccc3)cc21 | inactive: 3.92%
71 | Cc1ccc(OCC(=O)Nc2ccc3nc(Nc4cccc(Cl)c4)cc(C)c3c2)cc1 | inactive: -4.56%
72 | Cc1c(-c2ccc(Cl)cc2)c(=O)oc2c(CN3CCCC3)c(O)ccc12 | inactive: -6.88%

Row | SMILES | activity change, negative = cytotoxicity
73 | COc1ccc(N2CC(NC(=O)c3ccc(OC(C)C)cc3)CC2=O)cc1 (stereo unspecified) | inactive: 19.7%
74 | CCn1nc(C)c2c(-c3ccccc3)cc(=O)n(C(C)C(=O)NCc3ccc(C)cc3)c21 (stereo unspecified) | inactive: -10.3%
75 | CCCCCNC(=O)CCn1c(=O)[nH]c2ccccc2c1=O | inactive: -1.89%
76 | CCN(CC)c1ccc(NC(=O)c2cc3c(=O)n4cccc(C)c4nc3n2C)c(C)c1 | inactive: 11.7%
77 | Cc1cc(S(=O)(=O)NCC(c2ccc(N(C)C)cc2)N2CCOCC2)ccc1F (stereo unspecified) | inactive: 1.21%
78 | O=C(CSC1=Nc2ccccc2N=C(c2ccc(F)cc2)C1)NCc1ccc(Cl)cc1 | inactive: 9.58%
79 | Cc1ccc(CN(C(=O)COc2ccc(Cl)cc2Cl)C2CCS(=O)(=O)C2)o1 (stereo unspecified) | inactive: -0.0946%
80 | Cc1[nH]c(=O)[nH]c(=O)c1S(=O)(=O)N1CCN(c2cccc(Cl)c2)CC1 | inactive: -0.0832%
81 | CCCCNC(=O)CN1C(=O)COc2ccc(S(=O)(=O)N3CCCC3)cc21 | inactive: -1.29%
82 | COc1ccc(CNC(=O)CN2C(=O)CSc3ccc(S(=O)(=O)N4CCCC4)cc32)cc1 | inactive: -4.3%
83 | CSc1cccc(NC(=O)Cn2cnc(S(=O)(=O)N3CCCC3)c2)c1 | inactive: 4.81%
84 | O=C(Nc1ccccc1OCc1cc(=O)n2ccccc2n1)c1ccccc1F | inactive: 1.15%
85 | CCCn1c2ccccc2c2cnn(CC(=O)NCc3cc(OC)ccc3OC)c(=O)c21 | inactive: 15%
86 | COc1ccc(Cl)cc1NC(=O)N1CCC(CN2CCCCCC2)CC1 | inactive: -2.46%
87 | CCc1ccccc1NC(=O)C(C)n1nc(-c2ccc(C)c(C)c2)ccc1=O (stereo unspecified) | inactive: -0.666%
88 | Cc1cccc(Cn2cc(C(=O)Nc3ccc(S(N)(=O)=O)cc3)ccc2=O)c1 | inactive: -5.68%
89 | COc1ccc(NC(=O)CN(C)S(=O)(=O)c2cccc3nsnc23)cc1 | inactive: -22.5%
90 | COc1ccc(CNC(=O)C(=O)NCC(c2ccco2)S(=O)(=O)c2ccc(C)cc2)cc1 (stereo unspecified) | inactive: -26.3%
91 | COC(=O)c1ccc(Cn2nnc3sc4c(c3c2=O)CCCC4)cc1 | inactive: -5.77%
92 | COc1cc2nc(Nc3ccc(F)cc3)nc(N)c2cc1OC | inactive: -0.198%
93 | CCOC(=O)c1cccc(NC(=O)C(Cc2ccccc2)NS(=O)(=O)c2cccc3nsnc23)c1 (stereo unspecified) | inactive: -2.24%
94 | Cc1cccc(NC(=O)C2CCN(S(=O)(=O)c3ccc4c(c3)CCCC(=O)N4)CC2)c1 | inactive: 6.42%
95 | CCCNC(=O)C1CCC(Cn2c(=O)c3sccc3n(CC(=O)Nc3ccccc3C)c2=O)CC1 (stereo unspecified) | inactive: 2.27%
96 | CCCN(C(=O)c1sc2nc3n(c(=O)c2c1C)CCCC3)c1ccccc1C | inactive: -1%
